Test results: PubChem BioAssay AID602293 (National Center for Advancing Translational Sciences (NCATS), 2012)
The whole screen tested about 1,300 compounds, of which about 30 (2%) were called active. Not shown: some 10% with an inconclusive outcome. Calls follow the shape of the dose curve; as a rule, active = well fitted inhibition curve with a large enough effect; inconclusive = small, poorly fitted or top-dose-only effect; inactive = flat fitted curve, though single readings scatter. The list shows a part of the results.

Experiment: qHTS for antagonists of the Thyroid Stimulation Hormone Receptor: Hit Validation in HTRF Activity in a Luteinizing Hormone Receptor Cell Line
Conditions: LHR-expressing cell line, cAMP HTRF, antagonist mode; series mostly up to 58 µM; activity change, negative = inhibition: at the top concentration
Outline: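 Counter-screen on LH receptor–transfected HEK 293 cells: 30 min compound exposure at room temperature in medium containing 100 uM RO 20-1724 phosphodiesterase inhibitor. Cellular cAMP read by competitive HTRF after lysis with d2-cAMP and anti-cAMP antibody (330 nm excitation; 615/660 nm emission).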
% is scaled to controls: 0 for no effect and ±100 for the full control effect.

Activity change, negative = inhibition, inactive:
NC(=O)NC[C@@H]1CC[C@@H](Cc2ccc(-c3ccccc3)cc2)O1 1.14%
COc1ccc(-n2nnnc2SCC(=O)NC2CCCC2)cc1OC 3.12%
O=S(=O)(c1cccs1)N1CCN(CC(O)COc2cc(Cl)ccc2Cl)CC1 (stereo not drawn) -6.11%
Cc1cc(C)c(S(=O)(=O)c2c(C)cccc2C)c(Cl)n1 -0.523%
COC(=O)CN1C(=O)COc2ccc(S(=O)(=O)N3CCCC3)cc21 1.86%
O=C(Nc1ncc(S(=O)(=O)c2ccc([N+](=O)[O-])cc2)s1)c1ccc2ccccc2c1 -3.12%
COc1ccc(NC(=O)c2ccc3ccccc3n2)cc1S(=O)(=O)Nc1ccccc1Cl 1.67%
CCn1nnc2cc(C(=O)NCC(c3ccccc3OC)N(C)C)ccc21 (stereo not drawn) 0.025%
CCCCCCSc1nsc(NC(C)=O)n1 2.54%
Cc1ccc2oc(=O)c3cnn(CC(=O)N4CCN(c5ccccc5)CC4)c3c2c1 -2.35%
Cc1occc1-c1nnc(SCC(=O)Nc2nc(C(C)(C)C)cs2)o1 -0.969%
Cc1ccc2nc(NC(=O)C3CCN(S(=O)(=O)c4cc([N+](=O)[O-])ccc4Cl)CC3)sc2c1 -5.86%
O=c1cc(-c2ccccc2)nc2c(-c3ccccc3)c(C(F)(F)F)[nH]n12 1.06%
COc1cnc(SCc2ccc(Cl)cc2Cl)nc1Cl 1.36%
CC(CNC(=O)c1cc(COc2ccc3ncccc3c2)on1)c1ccccc1 (stereo not drawn) -4.02%
O=C(Nc1ncc(S(=O)(=O)c2ccc([N+](=O)[O-])cc2)s1)c1ccccc1F -0.0884%
CN(Cc1ccco1)S(=O)(=O)c1nnc(NC(=O)c2cccc(Cl)c2)s1 -0.337%
Cc1cc2cc(CCNC(=O)c3ccc(S(=O)(=O)N4CCCC4)cc3)c(=O)[nH]c2cc1C 0.149%
CC(=O)Oc1c(I)cc(I)cc1C(=O)Nc1ccc(Cl)cc1 -3.87%
CN1CCN(C2=CC3=CC(=C(C#N)C#N)CCC3CC2)CC1 (stereo not drawn) 0.754%
CC(=O)Nc1nc(C)c(Oc2ccc(C)cc2)c(=O)[nH]1 -1.56%
CCCC(=NC(C)CC)C1=C(O)CC(c2ccccc2)CC1=O (stereo not drawn) -1.47%
COC(=O)c1ccc(C2N=C(c3cccs3)CC(c3ccccc3O)N2)cc1 (stereo not drawn) -2.24%
Cc1[nH]n(-c2ccccc2)c(=O)c1N=Nc1c(O)cc(S(=O)(=O)N(C)C)c2ccccc12 -1.94%
c1ccc2c(Cn3nnc4ccccc43)cccc2c1 2.75%
Nc1ncc(Br)cc1S(=O)(=O)Nc1cc(C(F)(F)F)cc(C(F)(F)F)c1 -6.89%
CCOc1ccc(N(CC(=O)NCc2ccc(F)cc2)C(=O)CCC(=O)Nc2nccs2)cc1 1.3%
CN(C)c1nc(=S)nc(NCc2ccccc2)[nH]1 0.716%
COCC(=O)N1CCC(n2nccc2NC(=O)c2ccccc2OC)CC1 1.78%
O=C(Nc1nc(-c2cccs2)cs1)c1cccc(S(=O)(=O)N2CCCCCC2)c1 -3.67%
COC(=O)c1ccc(O)c(Sc2cc(C(=O)OC)ccc2O)c1 -1.81%
COc1ccc(Br)cc1/C=N/NC(=O)CN1CCCCC1 2.34%
O=C1/C(=C\c2cc([N+](=O)[O-])ccc2O)SC(=S)N1Cc1ccc(Cl)cc1 -1.59%
COC(=O)c1sc(-c2ccc(Cl)cc2)cc1NC(=O)/C=C/C(=O)O -4.96%
O=C(Nc1ccn(-c2ccccc2)n1)c1ccc(S(=O)(=O)N2CCCCCC2)cc1 0.221%
O=C(O)c1ccc(S(=O)(=O)/N=C2\C=C(Nc3ccccc3F)C(=O)c3ccccc32)cc1 0.79%
C=C(C)C(=O)OCC(O)COc1ccc(C(C)(C)c2ccc(OCC(O)COC(=O)C(=C)C)cc2)cc1 (stereo not drawn) -3.03%
O=C(N1CCN=C1SCc1cccnc1)C12CC3CC(CC(C3)C1)C2 -1.74%
CCCOc1ccc(-c2cc(C(=O)NCC3CCCO3)c3ccccc3n2)cc1 (stereo not drawn) -3.23%
O=C(CCC(=O)Nc1ccccc1)N/N=C/c1ccncc1 0.327%
Cc1cccc(OCCCCc2c(C)n[nH]c2C)c1C -0.833%
Cc1ccccc1C(=O)N1CCN(c2ccc(NC(=O)CSc3ccc(Cl)cc3)cc2)CC1 -5.18%
CC(C)C[C@H](N)c1nnc(S(=O)(=O)Cc2ccc(F)cc2)o1 -0.792%
COc1ccc(C(=O)Nc2ccc(Cl)c(S(=O)(=O)Nc3ccccc3OC)c2)cc1 -6.58%
COC(=O)Cn1c(=NC(=O)CSC(C)=O)sc2ccccc21 -1.47%
CN(Cc1ccco1)S(=O)(=O)c1csc(C(N)=O)c1 0.618%
O=C(CSc1n[nH]c(=O)n1C1CC1)c1ccc2c(c1)OCCO2 -0.0714%
O=C(CSc1ccc2nnc(CCNC(=O)c3ccccc3)n2n1)NCc1ccc(F)cc1 3.18%
C1=C(CCNc2ncnc3c2[nH]c2ccccc23)CCCC1 -9.93%
O=C(Nc1nnc(SCc2ccc(Cl)cc2Cl)s1)C1COc2ccccc2O1 (stereo not drawn) 1.21%
CC(C)S(=O)(=O)C1=NSC2=NC(=O)/C(=C\c3ccc(-c4ccccc4)o3)C(=N)N21 1.39%
C=CCSc1nsc(NC(=O)Nc2ccc(F)cc2)n1 -3.33%
O=C(c1cccs1)c1ccc(-c2cccs2)s1 -4.26%
COc1ccccc1N1C(=O)c2cccc3c(Cl)ccc(c23)C1=O -0.929%
O=C(Nc1cccc(Cl)c1)c1cc(N=Nc2ccc([N+](=O)[O-])cc2Cl)ccc1O -2.02%
COc1ccccc1N1CCN(c2nc(C)nc3c2oc2ccccc23)CC1 1.31%
CCOC(=O)CCS(=O)(=O)c1nc(-c2ccccc2)cc(C(F)(F)F)n1 0.21%
Cc1ccc(C)c(N2CCN(C(=O)CCS(=O)(=O)c3ccc4c(c3)CCN4C(=O)C3CC3)CC2)c1 0.0752%
Cc1ccc(NC(=O)Cn2ncc3c([nH]c4ccccc43)c2=O)cc1Cl -0.148%
COc1ccc(NS(=O)(=O)c2cccc(NC(=O)C3=NN(c4ccccc4)C(=O)CC3)c2)cc1 -2.7%
COc1cc(C(=O)NCCNC(=O)c2cnccn2)cc(OC)c1OC 1.01%
Cc1[nH]n(C)c(=O)c1C(=O)c1c(-c2c(Cl)cccc2Cl)noc1C 3.14%
O=[N+]([O-])c1cc(Br)c(O)c(/C=N/Nc2nc3ccccc3s2)c1 -0.562%
O=C(Nc1ccc(Oc2ccc(Cl)cc2)c(Cl)c1)c1cc(I)cc(I)c1O -0.309%
Cc1cc(-n2c(C)cc(C(=O)CSc3[nH]c(=O)cc(C(F)(F)F)c3C#N)c2C)no1 2.79%
CN(C)c1ccc(NC(=O)Oc2ccccc2)cc1 0.835%
O=S(=O)(Nc1ccc(-c2ccc(N3CCOCC3)nn2)cc1)c1cc(Cl)ccc1Cl -1.92%
COc1ccc(C(CC(=O)N2CCOCC2)c2c(OC)cc(OC)c3c(-c4ccccc4)cc(=O)oc23)cc1 (stereo not drawn) -2.67%
Cc1cccc(NC(=O)C2C3CCC4C(CCC32)C4(Cl)Cl)c1 (stereo not drawn) -0.704%
O=c1[nH]c(C2CCN(S(=O)(=O)c3cccc(Cl)c3)CC2)nc2c1nnn2Cc1ccccc1 2.58%
CC1=N/C(=C\c2ccc([N+](=O)[O-])cc2)C(=O)N1c1ccc(Cl)cc1 3.22%
Cc1ccc(-c2cnc(C3CC3)o2)cc1S(=O)(=O)Nc1ccccc1 -4.77%
O=Cc1c[nH]c2ccc(C(=O)c3ccccc3)cc12 -1.03%
CCN(C(=O)c1cc2c(=O)n3ccccc3nc2n1C)C1CCCCC1 1.28%
CC(=O)Nc1ccc(S(=O)(=O)Nc2c(NC3CCCCC3)c3ccccc3oc2=O)cc1 2.93%
N#C/C(=N/Nc1ccc(OC(F)(F)F)cc1)C(N)=S -0.939%
CCOC(=O)c1sc(NC(=O)c2cc(-c3ccccc3C)nc3ccccc23)c(C#N)c1C -5.43%
COc1ccccc1NC(=O)NNC(=O)CCN1CCOCC1 -0.59%
CCOP(=O)(Cc1ccc(C(C)(C)CC(C)=O)o1)OCC 0.366%
CCCCNC(=O)CC1C(=O)N(Cc2ccccc2)C(C)c2nc3ccccc3n21 (stereo not drawn) 3.43%
C=CS(=O)(=O)c1sc(Cl)c(N2CCOCC2)c1[N+](=O)[O-] 1.63%
COC(CNC(=O)c1ccc(Cn2c(=S)[nH]c3cc4c(cc3c2=O)OCO4)cc1)OC 0.428%
CCS(=O)(=O)c1ccc(C(=O)Nc2ccccc2)c(Cl)c1Cl -0.276%
Cc1ccc(C)c(N2CCN(S(=O)(=O)c3ccc4c(c3)CC(C)N4C(=O)C3CC3)CC2)c1 (stereo not drawn) 2.17%
COc1ccc(/C=N/NC(=O)c2ccoc2C)cc1COc1c(C)cccc1C -7.58%
N#Cc1ccc(C(=O)Nc2nc(-c3cccs3)c(C(=O)C(F)(F)F)s2)cc1 -4.4%
O=c1[nH]nc(Cc2ccc(-c3cccc(Cl)c3)o2)c2ccccc12 1.92%
O=S1(=O)C=C(Sc2nc3cc(Cl)ccc3o2)c2ccccc21 -7.43%
Cc1ccc(C)c(C(=O)OCC(=O)Nc2cccc(S(=O)(=O)N3CCCCC3)c2)c1 -0.887%
CC(C)(C)OC(=O)N1CCC(CC2CC(c3cccc(Br)c3)=NO2)(C(=O)NCC2CCCCC2)CC1 (stereo not drawn) -1.05%
Cc1ccccc1C(=O)Nc1nnc(SCC(=O)NC2CC2)s1 -0.682%
COc1ccccc1NS(=O)(=O)c1ccc2oc(SCc3ccc(F)cc3)nc2c1 0.681%
O=C(Nc1ccc(Br)cc1)c1cccc(S(=O)(=O)Nc2cnc3ccccc3c2)c1 0.767%
O=C(Nc1ccccc1Cl)/C(Cl)=C(\Cl)S(=O)c1ccccc1 (stereo not drawn) -22.7%
Cc1ccc2oc(C(=O)N3CCCCCC3)c(C)c2c1 1.02%
CCc1ccc(/C=C/C(=O)c2cc(Br)ccc(=O)c2O)cc1 0.973%
CCOC(=O)c1c(NC(=O)/C=C/C(=O)O)sc(C)c1-c1ccc(F)cc1 -1.43%
O=c1c2ccccc2nnn1CSc1nnc(-c2cccs2)n1Cc1ccccc1 -2.09%
Cc1[nH]c2ccccc2c1/C=C/c1cc[n+](C)cc1 -8.41%
Cc1cc(=O)oc2ccc(OCc3ccccc3)cc12 3.09%
CCCn1nc([N+](=O)[O-])c(C(C#N)c2nc3ccccc3o2)c(Cl)c1=O (stereo not drawn) 1.84%
C=CCNC(=O)c1ccc(NC(=O)C2=CSCCO2)cc1 -0.951%
O=C(NC(Nc1nc2ccc([N+](=O)[O-])cc2s1)(C(F)(F)F)C(F)(F)F)c1cccnc1 -2.25%
